Data published in US20140105855A1 (published 2014).

Columns and labels:
[1] = molecular target: T1, preformed IL-17RC-IL-17A complex (IL-17A captured by immobilised IL-17RC) (UniProt Q8NAC3 21-538; Q16552 24-155, biotin on the C-terminal BirA ligase tag); assay: SPR, second receptor injected over IL-17A captured on immobilised IL-17RC
T1 construct: extracellular domain;mature; One receptor with one cytokine dimer, assembled stepwise on the SPR chip; also called existing IL-17RC-IL-17A complex; not shown: C-terminal BirA ligase tag
Text: This strategy involved immobilizing one receptor on a SPR chip at a low coupling density in order to minimize possible homo-dimerization (e.g. cross-linking) of the receptors on the chip. The dimeric IL-17 cytokine was then captured by this receptor so that each receptor would be bound to one dimeric IL-17 ligand, leaving an exposed and accessible second receptor-binding site. The second receptor was subsequently passed over the preformed receptor-cytokine complexes to measure the affinity of the second receptor-binding event. In this fashion, the complex was assembled in a stepwise manner and each of the binding affinities was measured (FIG. 3).
Binding affinities were calculated via surface plasmon resonance (SPR) on a Biacore® T100 (GE Healthcare). C-terminally biotinylated IL-17 receptors were coupled to immobilized streptavidin on either an SA or CM4-sensor chip (GE Healthcare). An irrelevant, biotinylated protein was captured at equivalent immobilization densities to control flow cells. To measure the second receptor binding interaction, the cytokine was first captured to the immobilized receptor, followed by the second receptor injection. Low coupling densities (200-400 RU) and excess cytokine concentrations were used to optimize the number of cytokine homodimers bound to a single receptor. […] Data was analyzed using Biacore® T100 evaluation software Version 2.0 (GE Healthcare). […]

IL-17A = molecular target: T2, IL-17A (UniProt Q16552 24-155, limits assumed); assay: SPR, biotinylated receptor on streptavidin chip, cytokine injected
T2 construct: mature; The form 'mature' is inferred from secretion; also called interleukin-17; CTLA-8
Procedure: Binding affinities were calculated via surface plasmon resonance (SPR) on a Biacore® T100 (GE Healthcare). C-terminally biotinylated IL-17 receptors were coupled to immobilized streptavidin on either an SA or CM4-sensor chip (GE Healthcare). An irrelevant, biotinylated protein was captured at equivalent immobilization densities to control flow cells. To measure the second receptor binding interaction, the cytokine was first captured to the immobilized receptor, followed by the second receptor injection. Low coupling densities (200-400 RU) and excess cytokine concentrations were used to optimize the number of cytokine homodimers bound to a single receptor. The surface was regenerated using 3 M MgCl2 between each cycle. For kinetic experiments, a flow rate of 50 μl/min was used. Data was analyzed using Biacore® T100 evaluation software Version 2.0 (GE Healthcare). Affinities are reported as the mean of at least two independent experiments±the standard error of the mean (s.e.m.).

B1: IL-17RA extracellular domain (ECD) (receptor)
chain: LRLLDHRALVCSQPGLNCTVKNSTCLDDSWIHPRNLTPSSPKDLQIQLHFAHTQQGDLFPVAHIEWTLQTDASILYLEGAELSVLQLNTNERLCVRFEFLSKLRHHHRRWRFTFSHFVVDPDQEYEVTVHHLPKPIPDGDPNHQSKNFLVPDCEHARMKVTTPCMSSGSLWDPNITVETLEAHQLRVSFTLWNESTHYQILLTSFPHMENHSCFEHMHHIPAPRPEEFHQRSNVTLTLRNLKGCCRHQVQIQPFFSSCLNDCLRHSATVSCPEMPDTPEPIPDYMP
Kd [1]: 162 nM | Kd (IL-17A): 2.8 nM
